Whole data set: some 81,000 sequences, median “one-hybrid fitness for binding parS DNA” near -0.17, cut for the highest 2% near 0.51. The list shows a part of the results.
B1: Caulobacter ParB omega fusion; a variant is named by its letters at X, in order, B8GW30 (parent)
chain: MESVVVGEPGMSEGRRGLGRGLSALLGEVDAAPAQAPGEQLGGSREAPIEILQRNPDQPRRTFREEDLEDLSNSIREKGVLQPILVRPSPDTAGEYQIVAGERAWRAAQRAGLKTVPIMVRELDDLAVLEIGIIENVQRADLNVLEEALSYKVLMEKFERTQENIAQTIGKSXSHVANXMRLLXLPDEVQSYLVSGELTAXHARAIAAAADPVALAKQIIEGGLSVRETEALARKAPNLSAGKSKGGRPPRVKDTDTQALESDLSSVLGLDVSIDHRGSTGTLTITYATLEQLDDLCNRLTRGI

Variants of: B1
Assay: one-hybrid fitness for binding parS DNA (scaled: cognate 1, non-cognate 0); higher = stronger binding
Conditions: with parS DNA site
Method in brief: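 Values were rescaled so that cognate is 1 and non-cognate is 0. Each is a fitness, the log change in a variant's read ratio to wild type from Illumina reads of plasmids before and after selection, with three replicate libraries pooled and variants under 10 reads dropped. Selection of the Caulobacter ParB libraries, four specificity codons randomised, used E. coli USO with a HIS3 reporter, site 19 bp from the promoter, on M9-minus-histidine with 0.1 mM IPTG and 5 mM 3-AT for 48 hours at 37°C.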

Point of comparison: RFNA, “one-hybrid fitness for binding parS DNA” value 0.57. Against it:
- KVRL — lower, ≤ 0.2
- RFVI — lower, ≤ 0.2
- MYYG — lower, ≤ 0.2
- LYAA — lower, ≤ 0.2
- ILYV — lower, ≤ 0.2
- KVYM — lower, ≤ 0.2
- SDYW — lower, ≤ 0.2
- MADA — lower, ≤ 0.2
- KLGA — lower, ≤ 0.2
- QWAA — lower, ≤ 0.2
- LIRV — lower, ≤ 0.2
- FFRM — lower, ≤ 0.2
- ITSG — lower, ≤ 0.2
- LPCT — lower, ≤ 0.2
- YVNR — lower, ≤ 0.2
- WVYS — lower, ≤ 0.2
- WLLV — lower, ≤ 0.2
- TAKH — lower, ≤ 0.2
- TTTR — lower, ≤ 0.2
- DYQV — lower, ≤ 0.2
- HKHS — lower, ≤ 0.2
- CRFK — lower, ≤ 0.2
- VMHR — lower, ≤ 0.2
- SLKY — lower, ≤ 0.2
- MNGC — lower, ≤ 0.2
- AKSE — lower, ≤ 0.2
- SRPV — lower, ≤ 0.2
- REPY — lower, ≤ 0.2
- RSYR — lower, ≤ 0.2
- KFMR — lower, ≤ 0.2
- IGPC — lower, ≤ 0.2
- ACFG — lower, ≤ 0.2
- MNKT — lower, ≤ 0.2
- GLNA — lower, ≤ 0.2
- TNLK — lower, ≤ 0.2
- KITT — lower, ≤ 0.2
- LRMH — lower, ≤ 0.2
- GCLS — lower, ≤ 0.2
- AHKG — lower, ≤ 0.2
- VQTN — lower, ≤ 0.2
- WIYT — lower, ≤ 0.2
- QSWR — lower, ≤ 0.2
- QRRV — lower, ≤ 0.2
- GQKS — lower, ≤ 0.2
- KQRY — lower, ≤ 0.2
- NCKC — lower, ≤ 0.2
- PSIC — lower, ≤ 0.2
- QNHK — lower, ≤ 0.2
- ASPS — lower, ≤ 0.2
- PPGS — lower, ≤ 0.2
- AVNA — lower, ≤ 0.2
- VMNR — lower, ≤ 0.2
- QEHN — lower, ≤ 0.2
- PNLM — lower, ≤ 0.2
- KCKG — lower, ≤ 0.2
- DRLI — lower, ≤ 0.2
- LKMV — lower, ≤ 0.2
- FLTC — lower, ≤ 0.2
- TAAG — lower, ≤ 0.2
- PYYD — lower, ≤ 0.2
- KWDG — lower, ≤ 0.2
- TVTG — lower, ≤ 0.2
- FGMS — lower, ≤ 0.2
- CMVY — lower, ≤ 0.2
- THSF — lower, ≤ 0.2
- TQRS — lower, ≤ 0.2
- LLTA — lower, ≤ 0.2
- TPCN — lower, ≤ 0.2
- FSTR — lower, ≤ 0.2
- FMDS — lower, ≤ 0.2
- HSKL — lower, ≤ 0.2
- LHWG — lower, ≤ 0.2
- CRNH — lower, ≤ 0.2
- PWIT — lower, ≤ 0.2
- KTHC — lower, ≤ 0.2
- QNQC — lower, ≤ 0.2
- ASCT — lower, ≤ 0.2
- NAVN — lower, ≤ 0.2
- HYSR — lower, ≤ 0.2
- VLTG — lower, ≤ 0.2
- WTEG — lower, ≤ 0.2
- YLPY — lower, ≤ 0.2
- RGHY — lower, ≤ 0.2
- YSNG — lower, ≤ 0.2
- GNYR — lower, ≤ 0.2
- DMKY — lower, ≤ 0.2
- QPYQ — lower, ≤ 0.2
- QGGD — lower, ≤ 0.2
- VTKL — lower, ≤ 0.2
- RDWY — lower, ≤ 0.2
- RLSM — lower, 0.329
- WPLE — lower, ≤ 0.2
- RHSR — lower, ≤ 0.2
- PGPY — lower, ≤ 0.2
- LWSK — lower, ≤ 0.2
- KSDY — lower, ≤ 0.2
- PRNW — lower, ≤ 0.2
- NYWS — lower, ≤ 0.2
- RKQK — lower, ≤ 0.2
- NNMQ — lower, ≤ 0.2
- QQTC — lower, ≤ 0.2
- DARS — lower, ≤ 0.2
- AESC — lower, ≤ 0.2
- DRGM — lower, ≤ 0.2
- KTCQ — lower, ≤ 0.2
- PLIW — lower, ≤ 0.2
- DQMV — lower, ≤ 0.2
- RCYY — lower, 0.472
- NGPT — lower, ≤ 0.2
- RLCE — lower, ≤ 0.2
- PPRM — lower, ≤ 0.2
- MRKC — lower, ≤ 0.2
- APVI — lower, ≤ 0.2
- RILH — lower, ≤ 0.2
- QSGE — lower, ≤ 0.2
- HVTK — lower, ≤ 0.2
- HSYF — lower, ≤ 0.2
- HAMF — lower, ≤ 0.2
- DRIW — lower, ≤ 0.2
- LLGA — lower, ≤ 0.2
- HMSA — lower, ≤ 0.2
- THTS — lower, ≤ 0.2
- SCLT — lower, ≤ 0.2
- PTMG — lower, ≤ 0.2
- FEAM — lower, ≤ 0.2
- QVKQ — lower, ≤ 0.2
- EWAR — lower, ≤ 0.2
- VCAV — lower, ≤ 0.2
- QPYD — lower, ≤ 0.2
- AVTF — lower, ≤ 0.2
- MAQL — lower, ≤ 0.2
- FKHT — lower, ≤ 0.2
- FPAI — lower, ≤ 0.2
- PSHI — lower, ≤ 0.2
- WAGS — lower, ≤ 0.2
- TALV — lower, ≤ 0.2
- STTA — lower, ≤ 0.2
- SPSV — lower, ≤ 0.2
- GTRV — lower, ≤ 0.2
- HTLC — lower, ≤ 0.2
- PRTP — lower, ≤ 0.2
- GMAC — lower, ≤ 0.2
- FSNW — lower, ≤ 0.2
- CFRC — lower, ≤ 0.2
- DLVT — lower, ≤ 0.2
- GPFT — lower, ≤ 0.2
- GMDS — lower, ≤ 0.2
- ANIF — lower, ≤ 0.2
- NKIK — lower, ≤ 0.2
- NLNW — lower, ≤ 0.2
- NNVG — lower, ≤ 0.2
- KDRF — lower, ≤ 0.2
- KDQR — lower, ≤ 0.2
- NAHC — lower, ≤ 0.2
- LGKW — lower, ≤ 0.2
- VIYG — lower, ≤ 0.2
- PLQT — lower, ≤ 0.2
- NGLF — lower, ≤ 0.2
- STTS — lower, ≤ 0.2
- QAGG — lower, ≤ 0.2
- QVPI — lower, ≤ 0.2
- ICTF — lower, ≤ 0.2
- WCGV — lower, ≤ 0.2
- NHRA — lower, ≤ 0.2
- LGAW — lower, ≤ 0.2
- LNLP — lower, ≤ 0.2
- PYPR — lower, ≤ 0.2
- TRPD — lower, ≤ 0.2
- KFNA — lower, ≤ 0.2
- RRNI — lower, ≤ 0.2
- SIMS — lower, ≤ 0.2
- ECPM — lower, ≤ 0.2
- VMRS — lower, ≤ 0.2
- QKLD — lower, ≤ 0.2
- RLAD — lower, ≤ 0.2
- KLPV — lower, ≤ 0.2
- LCVS — lower, ≤ 0.2
- ILCS — lower, ≤ 0.2
- EVGS — lower, ≤ 0.2
- IRER — lower, ≤ 0.2
- QASD — lower, ≤ 0.2
- RHIV — lower, ≤ 0.2
- MNNG — lower, ≤ 0.2
- HDCD — lower, ≤ 0.2
- FFTA — lower, ≤ 0.2
- RWVA — lower, 0.329
- TAMP — lower, ≤ 0.2
- FRLA — lower, ≤ 0.2
- GQAE — lower, ≤ 0.2
- ANKR — lower, ≤ 0.2
- LMNM — lower, ≤ 0.2
- YRTF — lower, ≤ 0.2
- AEMS — lower, ≤ 0.2
- LVLS — lower, ≤ 0.2
- LPAS — lower, ≤ 0.2
- HWYR — lower, ≤ 0.2
- SKTA — lower, ≤ 0.2
- HKLR — lower, ≤ 0.2
- QRRP — lower, ≤ 0.2
- TING — lower, ≤ 0.2
- IARN — lower, ≤ 0.2
- KLNV — lower, ≤ 0.2
- FTPK — lower, ≤ 0.2
- EHDL — lower, ≤ 0.2
- GRRS — lower, ≤ 0.2
- KCVT — lower, ≤ 0.2
- CLYS — lower, ≤ 0.2
- RESF — lower, ≤ 0.2
- YFIS — lower, ≤ 0.2
- EARN — lower, ≤ 0.2
- RAAV — lower, ≤ 0.2
- TLAM — lower, ≤ 0.2
- NKKS — lower, ≤ 0.2
- VCQR — lower, ≤ 0.2
- MDPT — lower, ≤ 0.2
- LIKT — lower, ≤ 0.2
- GVPS — lower, ≤ 0.2
- RTCW — lower, 0.215
- PTKT — lower, ≤ 0.2
- VKYT — lower, ≤ 0.2
- RAEC — higher, 0.807
- YATV — lower, ≤ 0.2
- CPSR — lower, ≤ 0.2
- TNWC — lower, ≤ 0.2
- RAQE — lower, ≤ 0.2
- YNKI — lower, ≤ 0.2
- ITAP — lower, ≤ 0.2
- NSWC — lower, ≤ 0.2
- CTWG — lower, 0.274
- TCAS — lower, ≤ 0.2
- MAFC — lower, ≤ 0.2
- ILKA — lower, ≤ 0.2
- KTLC — lower, ≤ 0.2
- AYDC — lower, ≤ 0.2
- TDFG — lower, ≤ 0.2
- QVHV — lower, ≤ 0.2
- PATN — lower, ≤ 0.2
- QDKY — lower, ≤ 0.2
- PWKY — lower, ≤ 0.2
- PARI — lower, ≤ 0.2
- KSHW — lower, ≤ 0.2
- QSFR — lower, ≤ 0.2
- CYWG — lower, ≤ 0.2
- AFIA — lower, ≤ 0.2
- CVSP — lower, ≤ 0.2
- LQML — lower, ≤ 0.2
- FLTE — lower, ≤ 0.2
- LSCG — lower, ≤ 0.2
- RLWI — lower, ≤ 0.2
- SQRM — lower, ≤ 0.2
- TNMW — lower, ≤ 0.2
- KEAR — lower, ≤ 0.2
- PFQQ — lower, ≤ 0.2
- TEAW — lower, ≤ 0.2
- TCTM — lower, ≤ 0.2
- VGYV — lower, ≤ 0.2
- LGPP — lower, ≤ 0.2
- SFLG — lower, ≤ 0.2
- EVSY — lower, ≤ 0.2
- QYNH — lower, ≤ 0.2
- WVLV — lower, ≤ 0.2
- TGPT — lower, ≤ 0.2
- RGLE — lower, ≤ 0.2
- TERS — lower, ≤ 0.2
- YGPT — lower, ≤ 0.2
- TTSA — lower, ≤ 0.2
- WQHC — lower, ≤ 0.2
- PQLK — lower, ≤ 0.2
- SLKI — lower, ≤ 0.2
- LLAQ — lower, ≤ 0.2
- NVFS — lower, ≤ 0.2
- MMDG — lower, ≤ 0.2
- DACF — lower, ≤ 0.2
- RTTY — lower, 0.477
- HIPP — lower, ≤ 0.2
- QWLI — lower, ≤ 0.2
- VTHT — lower, ≤ 0.2
- AQSK — lower, ≤ 0.2
- RNHK — lower, ≤ 0.2
- TMTS — lower, ≤ 0.2
- CPRS — lower, ≤ 0.2
- HCCT — lower, ≤ 0.2
- RTGP — lower, ≤ 0.2
- CANA — lower, ≤ 0.2
- EKST — lower, ≤ 0.2
- RIKF — lower, 0.303
- IPTE — lower, ≤ 0.2
- LGGY — lower, ≤ 0.2
- SAPE — lower, ≤ 0.2
- ARHC — lower, ≤ 0.2
- DISS — lower, ≤ 0.2
- ISAC — lower, ≤ 0.2
- VHHR — lower, ≤ 0.2
- RASF — lower, 0.234
- SHNV — lower, ≤ 0.2
- LACG — lower, ≤ 0.2
- GKVS — lower, ≤ 0.2
- LTLG — lower, ≤ 0.2
- DNPV — lower, ≤ 0.2
- NPQD — lower, ≤ 0.2
- PNWC — lower, ≤ 0.2
- RWDG — higher, 0.616
- EDWG — lower, ≤ 0.2
- PSAG — lower, ≤ 0.2
- RRNP — lower, ≤ 0.2

From a collection of fitness landscapes (doi:10.1016/j.celrep.2020.107928)
